Reference: PubChem BioAssay AID624417 (National Center for Advancing Translational Sciences (NCATS), 2012)
Where “and” joins values, the source holds several entries; their conditions need not be identical. Equal values may be shown once. Out of some 410,000 compounds screened, about 6,400 (1.6%) were called active. The shares of active, inactive and inconclusive entries below differ from those in the screen. Calls follow the shape of the dose curve; as a rule, active = well fitted inhibition curve with a large enough effect; inconclusive = small, poorly fitted or top-dose-only effect; inactive = no such curve, though single readings can be large or run the other way. Potencies of inconclusive entries are doubtful fits and often do not repeat.

target: Glucagon-like peptide 1 receptor (Homo sapiens) (UniProt P43220); assay: qHTS of GLP-1 Receptor Inverse Agonists (Inhibition Mode); conditions: HEK293 GLP-1R CRE-luciferase, luminescence, 24 h, GLP-1R form is constitutively active; activity change, negative = inhibition: at 38.3 µM (top of the series) unless noted; also: nearly all actives have a fitted effect of over 55% in size
Method in brief: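 HEK293 cells stably co-expressing constitutively active GLP-1R and a cAMP-responsive luciferase reporter were seeded in DMEM with 10% Nu serum, given compounds after 12 h, and incubated 24 h at 37 deg C. Luminescence was then read.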
% is scaled to controls: 0 for no effect and ±100 for the full control effect; potency is read from the fitted curve at half-maximal effect; tags tell the direction and shape of the fitted curve.

Sequence of UniProt P43220 (P43220 whole entry, looked up): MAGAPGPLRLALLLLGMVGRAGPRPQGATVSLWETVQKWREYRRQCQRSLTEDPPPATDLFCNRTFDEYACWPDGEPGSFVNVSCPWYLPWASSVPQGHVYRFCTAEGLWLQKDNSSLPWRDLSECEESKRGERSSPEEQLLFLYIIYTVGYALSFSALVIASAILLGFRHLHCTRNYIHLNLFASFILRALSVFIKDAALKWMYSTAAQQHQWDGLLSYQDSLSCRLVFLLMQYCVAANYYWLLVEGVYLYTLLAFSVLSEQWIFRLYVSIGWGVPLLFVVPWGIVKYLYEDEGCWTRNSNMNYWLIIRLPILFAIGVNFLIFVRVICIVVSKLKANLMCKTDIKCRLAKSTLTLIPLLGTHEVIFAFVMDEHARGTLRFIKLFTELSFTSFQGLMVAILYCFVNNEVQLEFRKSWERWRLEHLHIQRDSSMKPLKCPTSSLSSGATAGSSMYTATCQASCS

Structure (SMILES) | Potency | activity change, negative = inhibition
COc1cccc([C@@H]2CC=C(C(=O)O)[C@H](c3ccc(Br)cc3)N2S(=O)(=O)c2ccc(C)cc2)c1 | inconclusive: 28.2 µM [inhibitor, single point] | 
COc1cc(/C=N/Nc2ccccc2C(F)(F)F)ccc1O | inconclusive: 7.08 µM [inhibitor, partial curve] | 
COc1ccc(/C=C2/SC(=S)N(CCCC(=O)N3CCN(C)CC3)C2=O)cc1 | inconclusive: 12.6 µM [inhibitor, partial curve, poor fit] | 
CCN(CC(=O)NCc1ccc(F)cc1)C(=O)Cc1ccc(OC)cc1 |  | inactive: -12.8%
COc1ccc(-c2nc3ccc(C)cn3c2Cc2cccc(Cl)c2)cc1OC | inconclusive: 28.2 µM [inhibitor, single point] | 
COc1ccccc1N(C)S(=O)(=O)c1ccc(C(=O)Nc2ccncc2)cc1 | inconclusive: 28.2 µM [inhibitor, single point] | 
Cc1c(C(=O)Nc2ccc(Br)cc2)cnn1C |  | inactive: 7.74%
CCC1CCCCN1C(=O)CSc1nc(-c2ccc(OC)cc2)cc(C(F)(F)F)n1 (centres undefined) | inconclusive: 8.91 µM [inhibitor, partial curve, poor fit] | 
CCCCc1ccc(NC(=O)N2CCN(c3cc(C)nc4ccccc34)CC2)c(C)c1 | inconclusive: 7.94 µM [inhibitor, partial curve, poor fit] | 
Oc1ccccc1CN1CCCC(N2CCc3ccccc3C2)C1 (centres undefined) | inconclusive: 8.91 µM [inhibitor, partial curve] | 
Cc1cccc(NC(=O)CSc2nc3ccccc3nc2N2CC(C)OC(C)C2)c1 (centres undefined) | inconclusive: 10 µM [inhibitor, partial curve, poor fit] | 
O=C(Nc1ccccc1)OCC1COC(c2ccccc2)(c2ccccc2)O1 (centres undefined) | inconclusive: 10 µM [inhibitor, partial curve, poor fit] | 
Cc1ccc(C2CC2c2n[nH]c(=S)n2-c2ccc(Cl)cc2)cc1 (centres undefined) | inconclusive: 14.1 µM [inhibitor, single point] | 
N=C(N)SCc1cccc2ccccc12 | active: 10 µM | 
CCOC(=O)C(CCSC)Nc1nc(Cl)nc(Nc2ccc(Cl)cc2)n1 (centres undefined) |  | inactive: -26.3%
COc1cc(-c2nc(-c3ccccc3)c(-c3ccc(F)cc3)[nH]2)cc2c1OCO2 | inconclusive: 1.58 µM [inhibitor, partial curve, poor fit] | 
CCOc1ccc(Br)cc1S(=O)(=O)NC1CCCC1 | inconclusive: 28.2 µM [inhibitor, partial curve, poor fit] | 
Clc1cccc(/C(Cc2nc3ccccc3[nH]2)=N\Nc2ccccc2)c1 | inconclusive: 11.2 µM [inhibitor, single point] | 
C=CCn1c(SCC(=O)N2c3ccccc3Sc3ccccc32)nnc1-c1ccco1 | inconclusive: 28.2 µM [inhibitor, single point] | 
CCC(C(=O)OCC(=O)Nc1cc(Cl)cc(Cl)c1)c1ccccc1 (centres undefined) | inconclusive: 20 µM [inhibitor, single point] | 
O=c1c(O)c(-c2cccs2)oc2ccccc12 | inconclusive: 8.91 µM [inhibitor, single point] | 
COc1ccc(OC)c(/C=N/NC(=S)NCCc2ccccc2)c1 | inconclusive: 8.91 µM [inhibitor, partial curve, poor fit] | 

Structure (SMILES) | Potency | activity change, negative = inhibition
Cc1cc(C)c(S(=O)(=O)Nc2ccc(-c3ccc(N4CCCCC4)nn3)cc2)cc1C |  | inactive: -6.76%
Cc1cc(C)c(C)c(S(=O)(=O)NCc2ccc(C(=O)NCC3CCCO3)cc2)c1C (centres undefined) | inconclusive: 11.2 µM [inhibitor, single point] | 
O=S(=O)(Nc1cc(Cl)ccc1-n1cncn1)c1cc(Br)ccc1Br | inconclusive: 7.94 µM [inhibitor, partial curve, poor fit] | 
C=CCn1c(O)c(C2=c3ccccc3=NC2=O)c2ccccc21 | inconclusive: 11.2 µM [inhibitor, partial curve, poor fit] | 
Cc1ccc(NC(=O)COC(=O)CCc2nc3ccccc3c(=O)[nH]2)c(Br)c1 |  | inactive: 2.46% [at 0.307 µM]
Fc1ccc2cnc(-c3ccccc3)c(-c3cccc(C(F)(F)F)c3)c2c1 | inconclusive: 11.2 µM [inhibitor, single point] | 
O=C(Nc1nc2ccccc2s1)c1ccccc1 | inconclusive: 11.2 µM [inhibitor, single point] | 
Cc1cccc(Cc2c(C)nc3c(C(=O)N4CCN(Cc5ccc6c(c5)OCO6)CC4)cnn3c2C)c1 |  | inactive: -8.15%
O=C(c1ccc2c3c(cccc13)CC2)C1CCCN(Cc2cccnc2)C1 (centres undefined) | inconclusive: 11.2 µM [inhibitor, partial curve, poor fit] | 
Cc1ccc(CSc2nc3cccnc3n2Cc2nc(-c3ccccc3F)oc2C)cc1 | inconclusive: 2 µM [inhibitor, partial curve, poor fit] | 
COc1ccc(Cl)cc1NC(=O)C1CC(=O)N(C2CCCCC2)C1 (centres undefined) | inconclusive: 5.01 µM [inhibitor, partial curve, poor fit] | 
C=C(c1ccc(O)cc1)c1ccc(O)cc1 | inconclusive: 28.2 µM [inhibitor, single point] | 
CC1CCC(N(CCCN)Cc2ccco2)CC1C (centres undefined) | inconclusive: 28.2 µM [inhibitor, single point] | 
CCCCCCCCCCCCCCCC[n+]1ccc(/C=N/O)cc1 | active: 8.91 µM | 
CC1(C)C2CCC1(CS(=O)(=O)N1CCOCC1)C(=O)C2 (centres undefined) |  | inactive: 0%
CCOc1ccc2c(c1)OC(c1ccc(C)cc1)(C(F)(F)F)NC2=O (centres undefined) | inconclusive: 0.501 µM [inhibitor, full curve, poor fit] | 
O=C(C1CC1)N1CCc2cc(Br)cc(S(=O)(=O)Nc3ccc(C(F)(F)F)cc3)c21 | inconclusive: 22.4 µM [inhibitor, single point] | 
CCOC(=O)C1=CN(Cc2cccc(F)c2)S(=O)(=O)NC1c1ccc(Br)cc1F (centres undefined) | active: 10 µM | 
Cc1nc(NC(=O)c2ccccc2)sc1C1(C)CC(c2c(Cl)cccc2Cl)=NO1 (centres undefined) | inconclusive: 22.4 µM [inhibitor, single point] | 
O=C(NC1CC(=O)N(c2ccc(F)cc2)C1)C(c1ccccc1)c1ccccc1 (centres undefined) |  | inactive: -11.3%
CCCCc1ccc(NC(=O)c2ccc(NS(C)(=O)=O)cc2)cc1 | inconclusive: 1.12 µM [inhibitor, full curve, poor fit] | 
C=CCN(C(=O)c1csnn1)C(C(=O)NCc1ccc(F)cc1)c1ccccc1F (centres undefined) | inconclusive: 20 µM [inhibitor, single point] | 

Structure (SMILES) | Potency | activity change, negative = inhibition
C=C1[C@@H](O)[C@H](Cc2ccccc2)N(Cc2ccccc2Br)S1(=O)=O | inconclusive: 10 µM [inhibitor, partial curve, poor fit] | 
COc1ccc(-c2noc(CSc3nnc(-c4ccncc4)n3-c3ccc(OC)cc3)n2)cc1 |  | inactive: -8.91%
Cc1ccc(S(=O)(=O)N2C[C@H]3n4c(=O)ccc(=O)n4C[C@H](OC(=O)NCc4ccco4)[C@@]3(O)C2)cc1 | inconclusive: 8.91 µM [inhibitor, partial curve, poor fit] | 
CN(C)C(=O)c1ccc(NC(=O)c2cc(-c3ccco3)nc3ccccc23)cc1 |  | inactive: -16.1%
O=C(CSCc1ccc([N+](=O)[O-])cc1)NCCSCc1ccccc1 | inconclusive: 10 µM [inhibitor, single point] | 
CCOC(=O)N1CCN(Cc2cc(Cl)c3cccnc3c2O)CC1 | inconclusive: 0.501 µM [inhibitor, full curve, poor fit] | 
Cc1sc2ncnc(N3CCC(C(=O)Nc4nc5ccc(Cl)cc5s4)CC3)c2c1C |  | inactive: 12.3%
Cc1cccc(NC(=S)Nn2cnnc2)c1C |  | inactive: 10.2%
CC(C)CN(CC(C)C)CC(O)COc1ccccc1Br (centres undefined) | inconclusive: 14.1 µM [inhibitor, single point] | 
COc1ccc2c(c1)N(C[C@H](C)CN(C)C)c1ccccc1S2 | inconclusive: 28.2 µM [inhibitor, single point] | 
O=S(=O)(c1cccc2ccccc12)N1CCC2CC1c1cc(Cl)ccc12 (centres undefined) | inconclusive: 28.2 µM [inhibitor, single point] | 
COc1ccc(C(CC(=O)N2CCCCC2)c2c(OC)cc(OC)c3c(-c4ccccc4)cc(=O)oc23)cc1 (centres undefined) | inconclusive: 28.2 µM [inhibitor, single point] | 
CCOC(=O)C1=C(C)NC(C)=C(C(=O)OCC)C1c1ccc(OC)cc1 | inconclusive: 28.2 µM [inhibitor, single point] | 
CCC1CCCCN1CCCNC(=O)c1ccc2c(c1)c(C)c(C)n2C (centres undefined) | inconclusive: 28.2 µM [inhibitor, single point] | 
CCOc1ccc(N(Cc2ccc(C(=O)O)cc2)S(=O)(=O)c2ccc(C)cc2)cc1 | inconclusive: 10 µM [inhibitor, single point] | 
Cc1ccc(N(CC(=O)NCc2ccc(OC(C)C)cc2)S(=O)(=O)N(C)C)cc1 |  | inactive: -28.7%
O=S(=O)(NCCc1csc(-c2ccccc2)n1)c1cccnc1 | inconclusive: 5.62 µM [inhibitor, full curve] | 
Cc1ccc(Cn2c(Cc3ccccc3)nc3ccccc32)cc1 | inconclusive: 14.1 µM [inhibitor, single point] and inconclusive: 28.2 µM [inhibitor, single point] | 
COC(=O)c1sccc1S(=O)(=O)Nc1ccc(C(O)(C(F)(F)F)C(F)(F)F)cc1 | inconclusive: 15.8 µM [inhibitor, single point] | 
COC(=O)c1ccc(NC(=O)CCOc2ccccc2)cc1 | inconclusive: 15.8 µM [inhibitor, single point] | 
